# Test results: article PMC6919601, “Identification of Plasmodium dipeptidyl aminopeptidase allosteric inhibitors by high throughput screening” (PLoS ONE, 2019)
# The campaign covered roughly 110,000 compounds. About 230 (0.21%) showed an effect of 50% or more. This is one part of the list.
# Molecular target: DPAP1 (Plasmodium falciparum, UniProt Q8IIJ9)
# Test: primary screen, percent inhibition; read by cleavage of a fluorogenic dipeptide substrate; higher = more effect of the substance
# Parameters: species or system P. falciparum D10 trophozoite lysates; single well
# 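Also: 30 min substrate incubation versus DMSO and 10 µM JCP410 controls.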
# DPAP1, sequence (Q8IIJ9 whole entry, looked up): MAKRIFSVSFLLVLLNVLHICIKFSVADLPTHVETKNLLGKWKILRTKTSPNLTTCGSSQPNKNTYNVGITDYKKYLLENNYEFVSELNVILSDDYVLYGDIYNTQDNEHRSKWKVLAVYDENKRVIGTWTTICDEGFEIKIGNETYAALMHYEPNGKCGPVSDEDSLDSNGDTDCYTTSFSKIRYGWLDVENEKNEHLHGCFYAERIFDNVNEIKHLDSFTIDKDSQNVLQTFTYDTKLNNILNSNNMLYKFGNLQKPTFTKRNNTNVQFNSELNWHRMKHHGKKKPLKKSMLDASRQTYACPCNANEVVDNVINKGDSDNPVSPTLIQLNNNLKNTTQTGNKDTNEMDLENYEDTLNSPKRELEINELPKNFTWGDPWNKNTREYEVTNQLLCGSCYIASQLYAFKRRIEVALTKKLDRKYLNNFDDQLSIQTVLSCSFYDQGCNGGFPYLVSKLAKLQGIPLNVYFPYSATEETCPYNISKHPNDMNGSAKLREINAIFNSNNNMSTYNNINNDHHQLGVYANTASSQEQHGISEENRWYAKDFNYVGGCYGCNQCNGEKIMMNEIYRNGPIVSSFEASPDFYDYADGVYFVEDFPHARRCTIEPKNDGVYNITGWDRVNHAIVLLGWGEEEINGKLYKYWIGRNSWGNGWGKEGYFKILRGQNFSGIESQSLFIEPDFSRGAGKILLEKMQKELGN
row,SMILES,% Inhibition @ 10 uM
1,CC1CN(Cc2ccc(Cl)c(Cl)c2)CC(C)O1 (stereo not shown),-4.15%
2,Cc1ccc(CNC(=O)Cn2ccn(Cc3ccc(Cl)cc3)c(=O)c2=O)cc1,-2.88%
3,O=C(O)c1ccc(CNCCc2ccccc2Cl)s1,7.62%
4,CCCCOc1ccc(-c2nc(-c3ccc(Br)cc3)no2)cc1,-2.32%
5,COCCCNC(=O)C1c2ccccc2C(=O)N(CCOC)C1c1cccs1 (stereo not shown),-1.52%
6,CCOc1ccc2c(c1)C(SCC(=O)N1CCN(c3ncccn3)CC1)CC1(CCCCC1)O2 (stereo not shown),-7.78%
7,CCOc1ccc(-c2nc(CSCC(=O)N3CCCC3)c(C)o2)cc1,0.718%
8,O=C(CCCn1nc(-c2ccccc2)c2ccccc21)NCc1ccc2c(c1)OCO2,-6.68%
9,O=C(COc1ccc(Br)cc1)Nc1ccc(N2CCN(C(=O)c3ccccc3)CC2)cc1,0.755%
10,O=C(NCc1ccco1)c1ccc(CS(=O)(=O)c2cccc(C(F)(F)F)c2)o1,-1.28%
11,Cc1ccc(-c2ccc(/C=C3/C(=N)N4C(=NC3=O)SN=C4S(C)(=O)=O)o2)cc1Cl,-3.39%
12,CCOc1ccc(C2CC(c3cccc(OC)c3)Nc3nc(N)nn32)cc1 (stereo not shown),-1.86%
13,O=C(NCCSc1c(-c2ccccc2)[nH]c2ccccc12)C1CC1,1.85%
14,c1cc2c(cc1CN1CCCCCC1)OCO2,1.27%
15,O=C(C1CCN(c2nn3cc(-c4ccc(F)cc4)nc3s2)CC1)N1CCCCCC1,-4.1%
16,CSc1ccc(/C=C2/SC(=O)N(CN3CCOCC3)C2=O)cc1,-0.661%
17,O=C(Nc1ccccc1C(=O)N1CCCCC1)C1CCCCC1,4.11%
18,COc1ccc(C2C3=C(O)CC(C)(C)CC3=NC3=C2C(=O)CC(C)(C)C3)cc1Br (stereo not shown),-2.54%
19,Cc1ccc(/C=C(\C#N)c2nn(-c3ccccc3)c(N)c2C#N)o1,-2.39%
20,Cc1cccc(C(=O)O/N=C(\N)c2cccnc2)c1,3.79%
21,CCOC(=O)Nc1scc(-c2cc(C)ccc2C)c1C#N,-1.98%
22,Cc1sc2nc(SCCCC(=O)NCCO)nc(O)c2c1C,-4.76%

row,SMILES,% Inhibition @ 10 uM
1,Nc1ncnc2c1nc(S)n2Cc1ccccc1,1.96%
2,Clc1ccc(-c2nc3n(n2)CCCS3)cc1,0.124%
3,O=C(c1cccc(C(=O)N2CCN(Cc3ccccc3)CC2)c1)N1CCN(Cc2ccccc2)CC1,-9.66%
4,N#Cc1c(N)nc2c(c1-c1ccc(Cl)cc1Cl)CCCCCC2,-3.13%
5,Cc1ccc(NC(=O)CNCc2ccco2)cc1Cl,0.605%
6,O=C(O)c1ccc(NS(=O)(=O)c2ccc(Br)cc2)cc1,-1.52%
7,CCC(C)NC(=O)c1ccccc1C(=O)NC(C)CC (stereo not shown),-4.21%
8,COc1cc(S(=O)(=O)NCCOc2ccccc2)c(OC)c2c(C)cc(O)nc12,-3.75%
9,CCOC(=O)c1sc(NC(=O)/C(C#N)=C/c2ccccc2)nc1C,3.86%
10,NC(=O)c1cc(S(=O)(=O)NCCN(Cc2ccco2)C2CCCC2)cs1,-1.23%
11,O=C(O)c1ccccc1C(=O)N(Cc1ccccc1)Cc1ccccc1,-0.95%
12,O=C(NCc1ccc2c(c1)OCO2)c1cnc2ccc(S(=O)(=O)N3CCOCC3)cc2c1O,-0.256%
13,O=C(Cn1ncc2c1-c1ccccc1OC2)NC1CCCCC1,0.0579%
14,CCOC(=O)c1ccc(-n2c(C)cc(C=C3C(=O)N(C)C(=O)N(C)C3=O)c2C)cc1,4.95%
15,CCOc1ccc(-c2nonc2NC(=O)c2ccc(OC)c(Cl)c2)cc1OCC,0.248%
16,CCCCCn1c(C)c(C(=O)O)c(O)c(-c2ccccc2)c1=O,2.36%
17,O=C1N=C(N2CCCCC2)S/C1=C\c1ccc(Br)cc1,2.45%
18,COC(=O)c1c(S)nc2ccccc2c1O,-7.62%
19,CCC(C)NC(=O)CN1C(=O)CSc2nc(C)cc(C)c21 (stereo not shown),-2.37%
20,Cc1ccc(C)c2nc(O)c(CCN3C(=O)c4ccccc4C3=O)cc12,3.67%
21,CCSc1ncc(Cl)c(C(=O)Nc2sc3c(c2C(N)=O)CCCC3)n1,2.19%
22,CC(Sc1nc2ccccc2[nH]1)c1ccccc1 (stereo not shown),4.59%

row,SMILES,% Inhibition @ 10 uM
1,COc1ccc(CN(C)S(=O)(=O)c2nnc(NC(=O)c3ccccc3Br)s2)cc1,0.709%
2,C=CC/N=c1\scc(-c2ccc(Cl)cc2)n1CC=C,-4.39%
3,CCCS(=O)(=O)c1ncc(Cl)c(C(=O)NCc2ccccc2)n1,-4.64%
4,COc1ccc(N2C(=O)c3ccccc3NC2c2ccc(OC)c(CN3CCOCC3)c2)cc1 (stereo not shown),-3.67%
5,CCO/C(O)=C(\C(C)=N\Cc1ccccc1)c1cc(O)c(Cl)c(Cl)c1O,3.79%
6,COc1ccc(/C=C2\SC(=O)N(CCC(=O)Nc3cccc(O)c3)C2=O)cc1OC,0.83%
7,COC(=O)C1=CN(C)C=C(C(=O)OC)C1c1ccccc1F,4.99%
8,CCOc1ccc(N(CC(=O)N2CCC(C)CC2)S(=O)(=O)c2ccc(Cl)cc2)cc1,-1.36%
9,CC(C)CCn1c(O)nc2ccccc21,10.4%
10,Cc1cccc(C)c1NC(=O)C1(NC(=O)c2ccccc2F)CCCC1,-3.98%
11,COc1ccc2[nH]cc(CCN(Cc3ccccc3)Cc3ccccc3)c2c1,3.16%
12,Cc1nc2ccccc2n1Cc1ccc(C(C)C)cc1,1.12%
13,CCCNC(=O)Cn1cc2c(n1)-c1c(oc(C(=O)N3CCCC3)c1C)CC2,3.35%
14,COC(=O)c1c(NC(=O)c2c(-c3ccccc3)noc2C)sc(C(=O)N(C)C)c1C,5.52%
15,COc1ccccc1C(=O)C(C)C(=O)c1ccccc1 (stereo not shown),-1.07%
16,C=CCc1ccc(OCC(O)CN2CCCCC2)c(OC)c1 (stereo not shown),-1.66%
17,O=C(NCCCN1CCN(Cc2ccccc2)CC1)c1cnn(-c2ccccc2)c1-n1cccc1,0.137%
18,O=c1cccc2n1C[C@H]1C[C@@H]2CN(Cc2cccc(F)c2)C1,1.8%
19,COc1ccc(S(=O)(=O)N(CC(=O)NCC2CCCO2)c2ccc(C)cc2)cc1Br (stereo not shown),-10.2%
20,COc1ccc(C)cc1NC(=O)COc1ccc(Br)cc1,2.45%
